In the supplement of paper PMC3724861:
Some of the results follow.

tested on: T1, Caupolican (Caup) homeodomain DNA-binding domain; assay: PBM E-score (8-mer, recovered from the published 9-mer minima) (E-score (dimensionless, -0.5 to 0.5)); Drosophila protein; higher = stronger relative binding preference, active = 0.31 or more
T1 sequence: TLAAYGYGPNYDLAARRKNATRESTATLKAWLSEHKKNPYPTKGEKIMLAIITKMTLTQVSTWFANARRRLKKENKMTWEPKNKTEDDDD
Summary of the method: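 Caup's homeodomain DNA-binding domain (residues 214-303) was produced by in vitro transcription and translation and applied at 100 nM to custom-designed protein binding microarrays. Each value is an enrichment score giving relative binding preference for a short DNA word; higher means stronger. Published 9-mer scores were the minimum of their two constituent 8-mer scores, and the 8-mer values were recovered from those minima. A cutoff of 0.31 marks candidate binding sequences.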

Sequence	PBM E-score
GCGAGTCC	inactive: -0.184
ATCGGGCC	inactive: -0.2
GACTCGAA	inactive: -0.102
TAATTCAA	≥ 0.174
ACGTAAGA	≥ 0.0887
CGTGGATC	inactive: -0.0533
GATGGCGC	inactive: -0.218
ACTACTAT	inactive: 0.235
GTCACACA	inactive: 0.12
CTGTCAAA	inactive: 0.164
ATAGGCAT	inactive: 0.0359
GCCTTCAC	inactive: -0.12
AGGGGTTA	≥ -0.0574
AGACCTAC	inactive: -0.00386
CATCTAAG	inactive: -0.0746
TCGATAAA	inactive: 0.043
CACTTTGG	inactive: -0.0554
AGACGGCC	inactive: -0.226
GCGAAAAA	inactive: -0.0202
AAATGGGA	inactive: -0.0126
CAAATTGG	inactive: 0.0392
CAAGATGG	inactive: 0.0306
CCACTGCA	inactive: -0.0769
GGTTTTAA	inactive: 0.0766

Sequence	PBM E-score
AACATGCA	active: 0.392
AGACCCTG	inactive: -0.055
TAATCGAA	inactive: 0.135
CCTAGCTC	inactive: -0.185
CCAACCCG	inactive: -0.183
GGCTTGAA	inactive: -0.103
ACATTAGA	inactive: 0.151
CCTAATAG	inactive: -0.041
CGTTGCAG	inactive: 0.0112
GGTGTGAA	inactive: 0.0932
AATTCGTA	inactive: 0.126
CCTTTGCC	inactive: -0.0643
GAGAGCGA	inactive: -0.106
CACACATG	inactive: 0.192
GTGCTTTA	inactive: 0.0626
CCGGTTGC	inactive: -0.127
AATGGCGA	inactive: -0.0331
ACACCGTG	inactive: 0.154
GACGGCAC	inactive: -0.157
GCAGGATA	inactive: -0.0699
AGTTACAC	inactive: 0.303
CGACATAC	inactive: 0.282
AGTTGGAT	≥ 0.123
ACCTCCTA	inactive: -0.0429

Sequence	PBM E-score
CAGAATCG	inactive: -0.0244
ATATAGAG	inactive: -0.0179
CCTTAAGA	inactive: -0.0441
GAACAGAA	inactive: 0.125
AAGCGGGT	inactive: -0.147
ATTCCCTC	inactive: -0.0219
CCAATGTA	inactive: 0.226
GCACGACC	inactive: -0.133
CAAGTGTC	inactive: 0.0701
AACCAGAG	inactive: 0.0681
GTAAAGTA	inactive: 0.251
CCGGTTAA	inactive: -0.0662
CGTTACTC	inactive: 0.0391
GGGGAGAA	inactive: -0.195
CGCCCCCC	inactive: -0.418
AGCCGGAC	inactive: -0.0745
CGCAGGTA	inactive: -0.0146
GCCTTCCA	inactive: -0.213
AATTGGCC	inactive: -0.118
ATTTATAC	inactive: 0.135
ACCTAGAA	inactive: 0.08
ACCTTATA	inactive: 0.0314
CCAAACGG	inactive: -0.223
GACCCGAC	inactive: -0.118

Sequence	PBM E-score
TATCATGA	inactive: 0.116
CTACCCAC	inactive: -0.155
AAAGTTTG	inactive: 0.0257
GCTCAGTA	≥ 0.0973
ACGAGTAA	inactive: 0.12
CTTATAAC	inactive: 0.201
ATACAGCG	inactive: 0.0635
CTCGGCCA	inactive: -0.14
ACACCTGC	inactive: 0.0667
ATGTATTC	inactive: 0.222
TCCTGTAA	inactive: 0.2
ACAATTCA	inactive: 0.155
GATCACCC	inactive: 0.0141
CGTGCACC	inactive: -0.134
ACTGCTGG	inactive: -0.2
ACCTACTG	inactive: 0.0945
CTGCGAGA	inactive: -0.15
CTTATTAC	inactive: 0.0885
ACCGTGCC	inactive: -0.0949
CGGAATTC	inactive: 0.00733
CACGTAGG	inactive: 0.0202
ACGTACTG	inactive: 0.0839
CCCGGGCG	inactive: -0.278
ACGGCTCA	≥ -0.076

Sequence	PBM E-score
ATACTAAC	inactive: 0.106
CAGAAGCA	inactive: 0.0288
ACGTGCTC	inactive: 0.0832
TCAACAGA	inactive: 0.125
CGCAGTGC	inactive: -0.184
ACGTATCG	inactive: 0.15
AGCGAGAA	inactive: -0.0132
CTATAAAA	inactive: 0.0732
ATCGTATG	inactive: 0.129
GCCTAATA	inactive: 0.0262
ATGCGTCA	inactive: 0.0147
CCTCATTC	inactive: -0.0598
TAGACCGA	inactive: -0.00841
GAAGTTCC	inactive: -0.197
GAATTCTA	inactive: 0.0891
GTACTCCA	inactive: 0.0363
AAGTAACC	inactive: 0.0819
GCGACAAC	inactive: 0.224
CTGAACCC	inactive: -0.166
CCAACGAA	inactive: -0.0476
AGGTGCGC	inactive: -0.167
CGAACCCC	inactive: -0.249
ATGTTGTC	active: 0.424
GGATAAAA	inactive: -0.0138

Sequence	PBM E-score
ATAGCATG	inactive: 0.116
AGACACAC	inactive: 0.139
CCGGCGGC	inactive: -0.308
CACGACAC	inactive: 0.165
CCACAAGA	inactive: -0.0272
ATCTAGCG	inactive: 0.00377
CCTTTGGC	inactive: -0.121
CGAATTTC	inactive: 0.0286
CACTAGAA	inactive: -0.0801
CACCTCCG	inactive: -0.0883
CGGGATAA	inactive: 0.0809
AGTTCAGG	inactive: 0.00941
AGTGGACA	inactive: 0.161
CACAAACG	inactive: 0.0867
CCGTGGAC	inactive: -0.165
CGGATTAA	inactive: 0.0202
CGCGTATA	inactive: -0.0122
AGGGGCAC	inactive: -0.133
GTCCGAAC	inactive: -0.0421
CTCTATGC	inactive: -0.076
GTTACCGA	inactive: 0.0117
GCTAGCCA	inactive: -0.207
CACGACTA	inactive: 0.0952
